The list shows a part of the results. Sequences were assembled here from the parent chain. Inactive controls read about 0.05.
B1: TEV protease; numbered along this chain (parent)
chain: MGESLFKGPRDYNPISSSICHLTNESDGHTTSLYGIGFGPFIITNKHLFRRNNGTLVVQSLHGVFKVKDTTTLQQHLVDGRDMIIIRMPKDFPPFPQKLKFREPQREERICLVTTNFQTKSMSSMVSDTSCTFPSGDGIFWKHWIQTKDGQCGSPLVSTRDGFIVGIHSASNFTNTNNYFTSVPKNFMELLTNQEAQQWVSGWRLNADSVLWGGHKVFMVKPEEPFQPVKEATQL

Variants of: B1
Assay: raw area under fraction-flipped curve 0-4 h after induction (AUC4h, not background-subtracted), DNA-recorder readout of cleavage of the substrate (dimensionless); higher = more cleavage of the substrate by the protease variant
Settings: temperature: 34 °C; time window: 0-4 h after rhamnose induction
Procedure: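 In vivo DNA recorder in E. coli TOP10(DE3) ΔrhaA at 34 °C. Each TEVp single-site mutant (parent TEVp 0) is paired with a single-site variant of the 7-mer TEVs (canonical ENLYFQ|S). The substrate sits between flexible linkers in a Bxb1-sfGFP-TEVs-SsrA fusion, so cleavage stabilises Bxb1 and speeds flipping of a recombination array, read by NGS. The value is the raw area under the fraction-flipped curve over 0-4 h after rhamnose induction (AUC4h), with ≥20 reads per time point. It is not background-subtracted; inactive controls average about 0.047.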
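Further: Bxb1 expression induced with 0.2% (w/v) L-rhamnose at OD600 near 0.5, cultures sampled hourly, flipped fraction per protease–substrate barcode pair counted by paired-end Illumina sequencing.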

Variant | area with substrate ENLAFQS | area with substrate ENLCFQS | area with substrate ENLDFQS | area with substrate ENLEFQS | area with substrate ENLFFQS | area with substrate ENLGFQS | area with substrate ENLHFQS | area with substrate ENLLFQS | area with substrate ENLMFQS | area with substrate ENLNFQS | area with substrate ENLPFQS | area with substrate ENLSFQS | area with substrate ENLQFQS | area with substrate ENLRFQS | area with substrate ENLIFQS | area with substrate ENLKFQS | area with substrate ENLVFQS | area with substrate ENLWFQS | area with substrate ENLTFQS
E195D | 0.0576 | 0.0784 | 0.0772 | 0.045 | 0.0946 | 0.064 | 0.07 | 0.0562 | 0.068 | 0.0704 | 0.0574 | 0.0546 |  |  |  |  |  |  | 
T115C | 0.0721 | 0.0685 | 0.0623 | 0.0609 | 0.0882 |  | 0.0701 | 0.0484 | 0.0907 | 0.0685 | 0.0662 | 0.0597 | 0.04 | 0.0601 |  |  |  |  | 
F95S | 0.0581 | 0.0716 | 0.0528 | 0.0643 | 0.0711 |  | 0.0618 |  |  | 0.0642 | 0.0505 | 0.0724 | 0.0601 | 0.0601 | 0.0534 | 0.0646 | 0.0699 | 0.0608 | 
N52I | 0.0592 |  |  |  |  |  | 0.0421 |  |  | 0.0774 |  | 0.0552 |  |  |  |  |  |  | 
D69H | 0.0543 |  | 0.0379 | 0.0588 | 0.0868 | 0.059 | 0.0815 | 0.084 | 0.0735 | 0.0546 | 0.0653 | 0.0657 | 0.0653 | 0.0581 | 0.0733 | 0.0777 | 0.09 | 0.0627 | 
V217N | 0.0866 | 0.055 | 0.0484 | 0.077 | 0.0745 | 0.0681 | 0.061 | 0.041 | 0.0648 | 0.0695 | 0.0724 |  |  | 0.0794 |  | 0.0529 | 0.0922 | 0.0568 | 0.0811
G214M | 0.0439 |  |  | 0.0646 | 0.0627 |  | 0.065 | 0.0636 | 0.0666 | 0.0607 | 0.0571 | 0.0443 |  |  |  | 0.0644 |  |  | 
P225T | 0.0756 | 0.0631 | 0.0617 | 0.0666 | 0.0651 |  | 0.0651 | 0.0676 | 0.101 | 0.0635 |  |  | 0.0711 | 0.079 | 0.0914 | 0.0764 | 0.0965 |  | 
G39V | 0.0595 | 0.0378 | 0.0458 | 0.041 | 0.0436 | 0.0443 | 0.0466 | 0.0426 | 0.0429 | 0.0402 | 0.0391 | 0.0438 | 0.0476 | 0.0433 | 0.0412 | 0.0485 | 0.043 | 0.0321 | 0.0489
N53A | 0.0761 |  | 0.0562 | 0.0623 | 0.104 | 0.0448 |  | 0.065 | 0.0775 | 0.0591 | 0.0627 | 0.0677 | 0.0628 | 0.0617 | 0.0686 | 0.0778 |  |  | 
V157N | 0.057 | 0.0542 | 0.0469 | 0.0537 | 0.0657 |  | 0.0523 | 0.047 |  | 0.0509 | 0.0359 | 0.0506 |  | 0.0679 | 0.0504 | 0.0615 |  | 0.0478 | 0.0629
N45S | 0.0558 | 0.0614 |  | 0.053 | 0.0653 |  | 0.0589 | 0.123 | 0.0347 |  | 0.0598 | 0.0573 |  |  | 0.0597 | 0.0652 |  | 0.0612 | 
H21S | 0.0651 |  | 0.0604 | 0.06 | 0.0811 | 0.058 | 0.0852 | 0.0759 | 0.0713 | 0.0656 | 0.0736 | 0.0566 | 0.0698 | 0.073 | 0.056 | 0.0841 | 0.0738 |  | 0.0786
H29W | 0.0525 |  | 0.049 | 0.0686 | 0.0932 | 0.0504 | 0.0857 | 0.0772 | 0.0739 | 0.0687 |  | 0.0662 |  | 0.0971 | 0.0808 |  | 0.0633 | 0.0574 | 
Q227M | 0.0455 |  | 0.0687 | 0.0617 | 0.0972 |  | 0.0643 |  |  | 0.0606 | 0.0369 | 0.0654 | 0.0708 | 0.0737 | 0.103 | 0.0785 |  |  | 0.071
G28M | 0.0569 | 0.0747 | 0.0662 |  | 0.0659 | 0.0571 | 0.0741 | 0.0638 |  | 0.0578 |  | 0.0584 |  | 0.0757 | 0.0683 | 0.0793 |  |  | 0.0727
F65E | 0.101 |  | 0.052 | 0.0735 | 0.0833 | 0.0609 |  |  | 0.0828 |  |  | 0.0481 | 0.0632 | 0.057 |  | 0.0933 |  | 0.0712 | 
F140M | 0.0594 | 0.0664 | 0.0506 |  | 0.0818 |  |  |  |  | 0.0566 | 0.0791 |  | 0.0469 | 0.0702 |  | 0.0695 |  |  | 
T233S | 0.0921 |  | 0.073 | 0.0681 | 0.124 |  | 0.0721 |  | 0.0744 | 0.0618 | 0.09 | 0.029 | 0.0731 |  | 0.0848 | 0.0834 |  |  | 
I86F | 0.0672 |  | 0.0603 |  | 0.0815 | 0.0617 | 0.0594 | 0.0532 |  |  | 0.0645 |  |  |  | 0.0642 | 0.0636 | 0.0664 |  | 
R109C | 0.0727 |  |  |  | 0.0647 |  | 0.0748 |  |  | 0.0611 | 0.0568 |  |  | 0.0443 | 0.0808 | 0.0758 | 0.0973 | 0.0659 | 
A196N | 0.0772 | 0.0874 | 0.0662 |  | 0.126 | 0.0639 | 0.0611 | 0.065 | 0.0567 | 0.0495 | 0.0495 | 0.0548 |  | 0.075 |  | 0.0818 |  |  | 
L48H | 0.0694 | 0.0474 | 0.0709 | 0.0645 | 0.0558 |  | 0.0549 |  | 0.0673 | 0.0567 | 0.0569 | 0.0339 | 0.0508 |  |  | 0.0521 |  | 0.056 | 
P228N | 0.0698 |  | 0.045 | 0.0652 | 0.0765 |  | 0.0908 | 0.078 |  | 0.0604 | 0.0665 | 0.0702 |  |  |  | 0.0828 | 0.0771 |  | 
R81G | 0.0755 |  | 0.0647 |  | 0.0708 | 0.0696 |  |  |  |  | 0.0533 | 0.0721 | 0.0597 | 0.0762 | 0.0626 | 0.0593 |  |  | 
S121E | 0.0713 | 0.0887 |  | 0.0734 | 0.108 | 0.0548 | 0.0399 | 0.0815 | 0.0711 | 0.0695 |  | 0.0571 | 0.0638 |  | 0.0556 |  |  |  | 
G214K | 0.0623 | 0.0757 | 0.06 | 0.089 | 0.0615 | 0.0622 |  |  | 0.0665 | 0.072 | 0.0585 | 0.0739 | 0.0622 | 0.0599 |  | 0.0732 |  |  | 0.0763

From the supplement of paper PMC12217912
